Not every detail of the peptide structures is certain; ends, links or a residue may be inferred. Ends that are not written are not given here.
Columns and labels:
THP-1 cells = assay: HOXB4-WT transduction: target gene mRNA by real-time PCR (Fold over control) and total RNA (ng/μL) as marker for cell viability; assay type: cell-based, human; conditions: peptide 1 μM; HOXB4-WT 300 nM or 50 nM; 30 min in the presence of serum
Procedure: Control and treated cells are transferred to separate sterile 1.5-mL tubes and centrifuged for 5 minutes at 300g. The cell pellets are resuspended in appropriate buffer to lyse the cells. RNAase-free 70% ethanol is then added followed by mixing by pipetting. The lysates are transferred to an RNeasy™ Mini spin column and centrifuged 30 seconds at 13000 RPM. After several washes with appropriate buffers and centrifugation steps, the eluates are collected in sterile 1.5-mL tubes on ice, and the RNA quantity in each tube is then quantified with a spectrophotometer. For DNase treatment, 2 μg of RNA is diluted in 15 μL of RNase-free water. 1.75 μL of 10X DNase buffer and 0.75 μL of DNase is then added, followed by incubation at 37° C. for 15 minutes. For reverse transcriptase treatment, 0.88 μL of EDTA […] is added, followed by incubation at 75° C. for 5 minutes. In a PCR tube, […] of DNase-treated RNA is mixed with 4 μL of iScript™ Reverse transcription Supermix (5X) and […] of nuclease-free water. The mix is incubated in a PCR machine with the following program: 5 min at 25° C., 30 min at 42° C. and 5 min at 85° C. Newly synthesized cDNA is transferred in sterile 1.5-mL tubes and diluted in 2 μL of nuclease-free water. 18 μL per well of a qPCR machine (CFX-96™) mix is then added in a PCR plate for analysis.
Briefly, THP-1 cells were plated at 30 000 cells/well one day before transduction. […] The cells were subjected to real time-PCR analysis as described in Example 14.2 to measure the mRNA levels of a target gene as a marker for HOXB4 activity, which was then normalized to the target gene mRNA levels detected in the negative control cells (no treatment), to obtain a “Fold over control” value. Total RNA levels (ng/μL) were also measured as a marker for cell viability.
Briefly, THP-1 cells were plated at 30 000 cells/well one day before the first time course experiment. […] The cells were subjected to real time-PCR analysis as described in Example 14.2 to measure mRNA levels of a target gene as a marker for HOXB4 activity, which was then normalized to the target gene mRNA levels detected in the negative control cells (no treatment), to obtain a “Fold over control” value. Total RNA levels (ng/μL) were also measured as a marker for cell viability.
Briefly, THP-1 cells were plated at 30 000 cells/well one day before the first time course experiment. […] The cells were subjected to real time-PCR analysis as described in Example 14.2 to measure mRNA levels of a target gene as a marker for HOXB4 activity, which was then normalized to target gene mRNA levels detected in the negative control cells (no treatment), to obtain a “Fold over control” value. Total RNA levels (ng/μL) were also measured as a marker for cell viability. […]

HeLa cells = assay: Plasmid DNA (pEGFP-C1) transfection by peptides (% cells with GFP signal, cell viability); conditions: DNA transfection in HeLa cells using peptides

| Sequence | target gene mRNA transcription after HOXB4-WT transduction (in words) (THP-1 cells) | Mean % cells with GFP signal (±St. Dev.; n = 3) (HeLa cells) [%] |
| --- | --- | --- |
| KWKLARAFARAIKKLGGSGGGSYARALRRQARTG [FSD10] | dose-dependent increase in mRNA transcription of the target gene | 0.21 ± 0.01 |
| LLKLWSRLLKLWTQGGSGGGSGRRLKAKRAKA [FSD18] | dose-dependent increase in mRNA transcription of the target gene |  |

Source: US12286632B2, “Rationally-designed synthetic peptide shuttle agents for delivering polypeptide cargos from an extracellular space to the cytosol and/or nucleus of a target eukaryotic cell, uses thereof, methods and kits relating to same” (Feldan Bio Inc., priority 2016, dated 2025)
